This is one part of the list. Most values come without repeats; read them as rough.
tested on: COLO792; test: cell count relative to DMSO control; melanoma cells; higher = more viable cells; settings: library dose: low library concentration; 72 h
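Also: cell number obtained by counting DAPI-stained nuclei in high-throughput microscope images with image analysis software, screen run in 1,536-well plates.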

Question: With CN(c1ncccc1CNc1nc(Nc2ccc3c(c2)CC(=O)N3)ncc1C(F)(F)F)S(C)(=O)=O + COc1ccc2c(c1)CCC1C2CCC2(C)C(NCCCCCCN3C(=O)C=CC3=O)CCC12 [U73122] (first compound 0.08 µM, partner dose 0.4 µM) as the molecule, how does the cell count read?
Answer: 100%

Question: How did the cell count turn out when CCCS(=O)(=O)Nc1ccc(F)c(C(=O)c2c[nH]c3ncc(Cl)cc23)c1F + CCCCCCCCCCCC1=C(O)C(=O)C=C(O)C1=O [Embelin] (first compound 0.08 µM, partner dose 1.2 µM) was run?
Answer: 116%

Question: With CN(c1ncccc1CNc1nc(Nc2ccc3c(c2)CC(=O)N3)ncc1C(F)(F)F)S(C)(=O)=O + Oc1nc(-c2ccc(C(F)(F)F)cc2)nc2c1CSCC2 [XAV939] (first compound 0.08 µM, partner dose 2 µM) as the molecule, how does the cell count read?
Answer: 59.3%

Question: Which cell count does the source give for NC1(c2ccc(-c3nc4ccn5c(=O)[nH]nc5c4cc3-c3ccccc3)cc2)CCC1 + COc1ccc2c(c1)CCC1C2CCC2(C)C(NCCCCCCN3C(=O)C=CC3=O)CCC12 [U73122] (first compound 0.4 µM, partner dose 0.4 µM) here?
Answer: 66.7%

Question: Which cell count does the source give for C=C(c1ccc(C(=O)O)cc1)c1cc2c(cc1C)C(C)(C)CCC2(C)C [Bexarotene] + O=C1NC(=O)/C(=C/c2ccc(-c3ccc(F)cc3O)o2)S1 [AS252424] (first compound 2 µM, partner dose 1 µM) here?
Answer: 77.8%

Question: Which cell count does the source give for CN(c1ncccc1CNc1nc(Nc2ccc3c(c2)CC(=O)N3)ncc1C(F)(F)F)S(C)(=O)=O + COc1cc(N2CCC(N3CCN(C)CC3)CC2)ccc1Nc1ncc(Cl)c(Nc2ccccc2S(=O)(=O)C(C)C)n1 [NVP-TAE684] (first compound 0.08 µM, partner dose 0.08 µM) here?
Answer: 84.8%

Question: How did the cell count turn out when CN(c1ncccc1CNc1nc(Nc2ccc3c(c2)CC(=O)N3)ncc1C(F)(F)F)S(C)(=O)=O + O=c1cc(-c2cccc3c2Sc2ccccc2S3)oc(N2CCOCC2)c1 [KU55933] (first compound 0.08 µM, partner dose 1 µM) was run?
Answer: 87%

Question: CN(c1ncccc1CNc1nc(Nc2ccc3c(c2)CC(=O)N3)ncc1C(F)(F)F)S(C)(=O)=O + N#Cc1c(O)c2c(-c3ccc(-c4ccccc4O)cc3)csc2[nH]c1=O [A769662] (first compound 0.08 µM, partner dose 2 µM) was tested. Which cell count did it give?
Answer: 85.1%

Question: Which cell count does the source give for CCCS(=O)(=O)Nc1ccc(F)c(C(=O)c2c[nH]c3ncc(Cl)cc23)c1F + Oc1cc(-c2nc(-c3ccccc3)[nH]c2-c2ccncc2)ccc1Cl [L779450] (first compound 0.08 µM, partner dose 0.2 µM) here?
Answer: 110%

Question: NC1(c2ccc(-c3nc4ccn5c(=O)[nH]nc5c4cc3-c3ccccc3)cc2)CCC1 + O=C(O)C(=O)Nc1sc2c(c1C(=O)O)CCNC2 [TCS401] (first compound 0.4 µM, partner dose 1.66667 µM) was tested. Which cell count did it give?
Answer: 71.8%

Question: With CN(c1ncccc1CNc1nc(Nc2ccc3c(c2)CC(=O)N3)ncc1C(F)(F)F)S(C)(=O)=O + Cn1cc(/C=C2\C(=O)Nc3cccnc32)c2ccccc21 [GW441756] (first compound 0.08 µM, partner dose 0.4 µM) as the molecule, how does the cell count read?
Answer: 86.9%

Question: CS(=O)(=O)c1ccc(C(=O)Nc2ccc(Cl)c(-c3ccccn3)c2)c(Cl)c1 [vismodegib] + COc1cc2ncnc(Nc3ccc(Oc4ccccc4)cc3)c2cc1OC [SrcI1] (first compound 1 µM, partner dose 2 µM) was tested. Which cell count did it give?
Answer: 99.6%

Question: How did the cell count turn out when NC1(c2ccc(-c3nc4ccn5c(=O)[nH]nc5c4cc3-c3ccccc3)cc2)CCC1 + COc1ccc(-c2ccc3c(N4CCOCC4)nc(N4C[C@@H](C)O[C@@H](C)C4)nc3n2)cc1CO [KU0063794] (first compound 0.4 µM, partner dose 0.02 µM) was run?
Answer: 55.6%

Question: Which cell count does the source give for CN(c1ncccc1CNc1nc(Nc2ccc3c(c2)CC(=O)N3)ncc1C(F)(F)F)S(C)(=O)=O + O=C1NC(=O)/C(=C/c2ccc(-c3ccc(F)cc3O)o2)S1 [AS252424] (first compound 0.08 µM, partner dose 1 µM) here?
Answer: 73.2%

Question: How did the cell count turn out when CS(=O)(=O)c1ccc(C(=O)Nc2ccc(Cl)c(-c3ccccn3)c2)c(Cl)c1 [vismodegib] + COc1ccc(COc2ccc(Cc3cnc(N)nc3N)cc2OC)cc1 [GW2580] (first compound 1 µM, partner dose 1 µM) was run?
Answer: 102%

From the supplement of paper PMC4604168 (melanoma cell lines)
